For at least one compound, name, drawing or mass did not settle the structure. Starred links: 1 amine or outer side, 2 acyl side, 3 side chain; linkers in the order of their positions; H or OH if unused. Positions of bridges follow the written chain, without caps; N, C: chain ends. Non-standard residues stand in square brackets, D forms with d. Residues, ends and D or L forms follow the SMILES beside them. X15 = Cc1cccc2cc(C[C@H](N[*:1])C(=O)[*:2])ccc12; Trp(7-Me) = Cc1cccc2c(C[C@H](N)C(=O)O)c[nH]c12; AEF = NCCOc1ccc(C[C@H](N)C(=O)O)cc1; αMeF = C[C@](N)(Cc1ccccc1)C(=O)O; Pen = CC(C)(S)[C@H](N)C(=O)O; Thp = NC1(C(=O)O)CCOCC1
Assays:
[1] = target: T1, IL-23-stimulated phosphorylated STAT3 in peripheral blood mononuclear cells (PBMCs) (Homo sapiens, UniProt Q5VWK5); assay: PBMC pSTAT3 Assay; type: cell-based; conditions: PBMCs from healthy donors, IL-23 5 ng/mL, 30 minutes
T1 sequence (Q5VWK5 24-629): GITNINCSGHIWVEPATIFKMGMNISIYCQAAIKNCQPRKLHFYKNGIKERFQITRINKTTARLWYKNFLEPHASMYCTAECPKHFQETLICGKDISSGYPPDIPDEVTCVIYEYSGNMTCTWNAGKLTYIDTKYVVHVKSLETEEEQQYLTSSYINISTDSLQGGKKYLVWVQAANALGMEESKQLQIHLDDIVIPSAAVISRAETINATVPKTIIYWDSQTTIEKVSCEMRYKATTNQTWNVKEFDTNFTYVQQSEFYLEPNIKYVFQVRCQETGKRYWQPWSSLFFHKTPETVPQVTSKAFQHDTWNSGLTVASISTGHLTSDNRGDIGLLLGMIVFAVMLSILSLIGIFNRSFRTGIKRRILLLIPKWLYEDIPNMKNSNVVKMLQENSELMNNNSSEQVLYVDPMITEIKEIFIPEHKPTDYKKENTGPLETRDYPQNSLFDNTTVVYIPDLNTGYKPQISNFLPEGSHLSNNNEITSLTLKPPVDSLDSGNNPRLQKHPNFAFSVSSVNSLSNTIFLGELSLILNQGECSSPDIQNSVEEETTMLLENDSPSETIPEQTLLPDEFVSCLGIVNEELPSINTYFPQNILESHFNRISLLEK
Procedure, shortened: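 Anti-CD3/IL-1β-expanded donor PBMCs (day 4) starved ~4 h in RPMI-0.1% BSA, preincubated 30 min with peptide, then stimulated 30 min at 37° C with 5 ng/mL IL-23 (final). Lysates read for phospho-STAT3 by Meso Scale phospho-STAT panel immunoassay.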

IL-23R = target: T2, IL-23R (Homo sapiens, UniProt Q5VWK5); assay: IL23R Reporter Assay; type: cell-based; conditions: HEK293 cells containing IL-23R, IL-12Rβ1 and STAT-inducible luciferase reporter; 10 ng/mL IL-23; 5 h
T2 construct: host or cells: HEK293
T2 sequence (Q5VWK5 24-629): T1 sequence (Q5VWK5 24-629)
Procedure: Compounds were serially diluted in 100% (v/v) DMSO) and plated using an Echo acoustic dispenser (Labcyte) into 1536-well non-treated black assay plates (Corning #9146). […] After 5 h at 37° C., 5% CO2, 95% relative humidity, cells were placed at 20° C. and treated with BioGlo reagent (Promega) according to the Manufacturer's instructions. Luminescence was measured on a Pherastar FSX (BMG LabTech).

## CC(=O)NCCCC[C@@H]1NC(=O)[C@H](Cc2c[nH]c3c(C)cccc23)NC(=O)[C@H]([C@@H](C)O)NC(=O)[C@H](CC(N)=O)NC(=O)[C@@H](NC(=O)[C@@H](CCCNC(=N)N)NC(C)=O)C(C)(C)SSC(C)(C)[C@@H](C(=O)N[C@@H](Cc2ccc(OCCN)cc2)C(=O)N[C@@H](Cc2ccc3c(C)cccc3c2)C(=O)NC2(C(=O)N[C@@H](CCC(=O)O)C(=O)N[C@@H](CC(N)=O)C(=O)N[C@@](C)(Cc3ccccc3)C(N)=O)CCOCC2)NC1=O [compound 445] (Ac-[dR][Pen]NT[Trp(7-Me)]K(Ac)[Pen][AEF][X15][Thp]EN[αMeF]-NH2; disulfide 2-7; N-terminus and C-terminus assumed)
[1]
  IC50: > 1 nM
IL-23R
  IC50: > 100 nM

Source: patent publication US20240279281A1, “Peptide Inhibitors of Interleukin-23 Receptor” (Janssen Pharmaceutica NV, priority 2023, published 2024)
